Common to all, as to experiment: FRET or BRET; BRET in live HEK293 cells transfected with equimolar YFP and Rluc fusion constructs; read 48 h after transfection, after 4 h at 37 °C with 60 µM EnduRen; corrected BRET ratio, YFP-NLS and Rluc-NLS as control proteins
On the technique in general: In BRET a luciferase serves as donor, and the signal depends on an acceptor being close.

Experiment [1] has as its target BCL11A-L (773 amino acids) (human) (UniProt Q9H165).
In experiment [2] the target is BCL11A-L N-terminal deletion, residues 244-773 (human) (UniProt Q9H165).
Experiment [3] has as its target T1, BCL11A-L N-terminal deletion, residues 629-773 (human) (UniProt Q9H165).
T1 sequence: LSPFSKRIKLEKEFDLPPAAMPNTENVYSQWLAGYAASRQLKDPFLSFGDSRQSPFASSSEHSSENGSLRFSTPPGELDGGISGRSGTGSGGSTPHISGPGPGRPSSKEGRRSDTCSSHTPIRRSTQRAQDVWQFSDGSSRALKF

Experiment [4] concerns the target BCL11A-L p.C48F (human) (UniProt Q9H165).
Experiment [5] addresses BCL11A-L p.H66Q (human) (UniProt Q9H165).
Experiment [6] addresses BCL11A-L p.T47P (human) (UniProt Q9H165).
Experiment [7] addresses T2, TBR1 (T-box brain, 1), wild type (human) (UniProt Q16650).
T2 sequence: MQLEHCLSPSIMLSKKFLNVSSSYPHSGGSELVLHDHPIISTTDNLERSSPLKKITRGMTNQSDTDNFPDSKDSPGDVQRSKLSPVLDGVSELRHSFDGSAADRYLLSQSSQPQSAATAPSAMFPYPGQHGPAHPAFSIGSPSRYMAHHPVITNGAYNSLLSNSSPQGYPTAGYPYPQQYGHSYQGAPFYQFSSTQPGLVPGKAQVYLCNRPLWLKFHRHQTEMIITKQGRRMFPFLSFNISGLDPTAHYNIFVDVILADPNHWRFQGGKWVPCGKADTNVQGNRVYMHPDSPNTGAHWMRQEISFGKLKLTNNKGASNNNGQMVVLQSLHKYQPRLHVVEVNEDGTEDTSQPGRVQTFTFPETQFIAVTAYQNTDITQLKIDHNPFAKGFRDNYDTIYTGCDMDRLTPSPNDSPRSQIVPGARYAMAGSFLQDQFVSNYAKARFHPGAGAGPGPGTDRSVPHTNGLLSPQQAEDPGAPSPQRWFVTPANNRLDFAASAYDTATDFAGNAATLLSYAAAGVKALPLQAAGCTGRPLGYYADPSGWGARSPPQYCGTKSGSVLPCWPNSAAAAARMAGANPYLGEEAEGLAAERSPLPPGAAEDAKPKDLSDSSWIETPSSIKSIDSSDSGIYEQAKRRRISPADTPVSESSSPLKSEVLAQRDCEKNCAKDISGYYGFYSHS

Numbering of substitutions follows the chain as printed. Names may count otherwise. No constants are given. Whether binding was seen depends on the method and setting. Binding seen in cells or lysates may run through a third protein. Some entries that bind do so weakly or less than the wild type.

B1: TBR1 p.S351* (domain or fragment, UniProt Q16650-1 1-350)
chain: MQLEHCLSPSIMLSKKFLNVSSSYPHSGGSELVLHDHPIISTTDNLERSSPLKKITRGMTNQSDTDNFPDSKDSPGDVQRSKLSPVLDGVSELRHSFDGSAADRYLLSQSSQPQSAATAPSAMFPYPGQHGPAHPAFSIGSPSRYMAHHPVITNGAYNSLLSNSSPQGYPTAGYPYPQQYGHSYQGAPFYQFSSTQPGLVPGKAQVYLCNRPLWLKFHRHQTEMIITKQGRRMFPFLSFNISGLDPTAHYNIFVDVILADPNHWRFQGGKWVPCGKADTNVQGNRVYMHPDSPNTGAHWMRQEISFGKLKLTNNKGASNNNGQMVVLQSLHKYQPRLHVVEVNEDGTEDT
As to B1, the binding result in experiment [1] is given as “no binding”.

B2: TBR1 p.N394* (domain or fragment, UniProt Q16650-1 1-393)
chain: MQLEHCLSPSIMLSKKFLNVSSSYPHSGGSELVLHDHPIISTTDNLERSSPLKKITRGMTNQSDTDNFPDSKDSPGDVQRSKLSPVLDGVSELRHSFDGSAADRYLLSQSSQPQSAATAPSAMFPYPGQHGPAHPAFSIGSPSRYMAHHPVITNGAYNSLLSNSSPQGYPTAGYPYPQQYGHSYQGAPFYQFSSTQPGLVPGKAQVYLCNRPLWLKFHRHQTEMIITKQGRRMFPFLSFNISGLDPTAHYNIFVDVILADPNHWRFQGGKWVPCGKADTNVQGNRVYMHPDSPNTGAHWMRQEISFGKLKLTNNKGASNNNGQMVVLQSLHKYQPRLHVVEVNEDGTEDTSQPGRVQTFTFPETQFIAVTAYQNTDITQLKIDHNPFAKGFRD
Take B2: the binding result in experiment [1] was “binds”.

B3: TBR1 p.S568* (domain or fragment, UniProt Q16650-1 1-567)
chain: MQLEHCLSPSIMLSKKFLNVSSSYPHSGGSELVLHDHPIISTTDNLERSSPLKKITRGMTNQSDTDNFPDSKDSPGDVQRSKLSPVLDGVSELRHSFDGSAADRYLLSQSSQPQSAATAPSAMFPYPGQHGPAHPAFSIGSPSRYMAHHPVITNGAYNSLLSNSSPQGYPTAGYPYPQQYGHSYQGAPFYQFSSTQPGLVPGKAQVYLCNRPLWLKFHRHQTEMIITKQGRRMFPFLSFNISGLDPTAHYNIFVDVILADPNHWRFQGGKWVPCGKADTNVQGNRVYMHPDSPNTGAHWMRQEISFGKLKLTNNKGASNNNGQMVVLQSLHKYQPRLHVVEVNEDGTEDTSQPGRVQTFTFPETQFIAVTAYQNTDITQLKIDHNPFAKGFRDNYDTIYTGCDMDRLTPSPNDSPRSQIVPGARYAMAGSFLQDQFVSNYAKARFHPGAGAGPGPGTDRSVPHTNGLLSPQQAEDPGAPSPQRWFVTPANNRLDFAASAYDTATDFAGNAATLLSYAAAGVKALPLQAAGCTGRPLGYYADPSGWGARSPPQYCGTKSGSVLPCWPN
Consider B3, for which the binding result in experiment [1] is “binds”.

B4: TBR1 (T-box brain, 1), wild type (protein, UniProt Q16650-1 1-682)
chain: T2 sequence
B4: the binding result in experiment [1], in experiment [2], in experiment [3], in experiment [4], in experiment [5] and in experiment [6] was “binds” throughout. Also, in experiment [7], the binding result is on record as “binds”.

B5: TBR1 p.P542R (protein, UniProt Q16650-1 1-682)
chain: T2 sequence with P542R
In the case of B5, the binding result in experiment [1] is reported as “binds”.

B6: TBR1 p.V356M (protein, UniProt Q16650-1 1-682)
chain: T2 sequence with V356M
Turning to B6, the binding result in experiment [1] was “binds”.

B7: TBR1 p.N374H (protein, UniProt Q16650-1 1-682)
chain: T2 sequence with N374H
For B7, the binding result in experiment [1] is on record as “binds”.

B8: TBR1 p.Q418R (protein, UniProt Q16650-1 1-682)
chain: T2 sequence with Q418R
With B8, in experiment [1], the binding result is given as “no binding”.

B9: TBR1 p.K228E (protein, UniProt Q16650-1 1-682)
chain: T2 sequence with K228E
As for B9, the binding entry in experiment [1] is “binds”.

The values are drawn from publication PMC6155134.
